The whole screen tested about 110,000 compounds, of which about 230 (0.21%) showed an effect of 50% or more. Some of the results follow.
target: DPAP1 (Plasmodium falciparum, UniProt Q8IIJ9); test: primary screen, percent inhibition; read by cleavage of a fluorogenic dipeptide substrate; higher = more effect of the substance; set-up: species or system P. falciparum D10 trophozoite lysates; single well
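Note: 30 min substrate incubation versus DMSO and 10 µM JCP410 controls.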

Sequence of DPAP1 (Q8IIJ9 whole entry, looked up): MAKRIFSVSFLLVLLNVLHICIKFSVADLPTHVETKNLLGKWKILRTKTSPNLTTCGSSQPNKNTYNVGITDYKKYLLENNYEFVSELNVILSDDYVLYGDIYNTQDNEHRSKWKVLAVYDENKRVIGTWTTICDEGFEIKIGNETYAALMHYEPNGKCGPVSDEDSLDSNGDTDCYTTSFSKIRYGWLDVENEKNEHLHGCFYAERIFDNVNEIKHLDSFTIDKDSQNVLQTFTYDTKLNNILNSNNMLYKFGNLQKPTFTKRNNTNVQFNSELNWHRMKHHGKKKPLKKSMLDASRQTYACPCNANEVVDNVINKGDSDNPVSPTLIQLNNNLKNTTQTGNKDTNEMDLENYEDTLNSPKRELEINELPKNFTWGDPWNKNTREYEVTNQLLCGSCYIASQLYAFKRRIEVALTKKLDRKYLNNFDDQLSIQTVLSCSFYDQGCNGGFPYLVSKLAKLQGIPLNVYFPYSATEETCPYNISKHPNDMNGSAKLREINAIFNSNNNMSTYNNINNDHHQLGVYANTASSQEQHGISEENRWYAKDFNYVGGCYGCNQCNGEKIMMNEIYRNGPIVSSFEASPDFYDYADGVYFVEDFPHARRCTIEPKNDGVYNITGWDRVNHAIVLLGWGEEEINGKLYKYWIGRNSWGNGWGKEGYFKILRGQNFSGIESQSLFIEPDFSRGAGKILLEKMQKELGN

Structure (SMILES)	% Inhibition @ 10 uM [%]
COc1ccc(CCNCc2ccccc2C(F)(F)F)cc1	-9.04
COc1ccc(N(Cc2ccc(F)cc2)C(=O)c2ccc(Br)cc2)cc1	3.31
Cc1ccc(CCNCc2c(C(=O)O)n(Cc3ccccc3C)c3cc(C)ccc23)cc1	5.61
CCOC(=O)N1CCN(C(=O)c2sc3nc(-c4ccc(F)cc4)cn3c2C)CC1	-5.58
O=C(O)/C=C/C(=O)Nc1ccccc1C(=O)Nc1ccccc1	4.16
COCCn1c(Cc2cccn2C)nnc1SCC(=O)Nc1cc(C)on1	3.6
O=C(CCCOc1ccc(Cl)cc1Cl)Nc1ccccc1	-0.865
Cc1cccc(N2C(=O)CC(Nc3ccc(F)cc3)C2=O)c1 (centres unmarked)	0.163
c1ccc(C2CCC(NCCc3c[nH]cn3)CC2)cc1 (centres unmarked)	-3.6
CN1C(=O)C(C(=O)N(Cc2ccccc2)Cc2ccccc2)C2CC1(C)Oc1ccccc12 (centres unmarked)	2.55
Cc1ccccc1C1C=C(c2ccc(Br)s2)Nc2ncnn21 (centres unmarked)	3.12
CCCCN1C(=O)C(NS(=O)(=O)c2ccc(C)cc2)(C(F)(F)F)C2=C1CC(C)(C)CC2=O (centres unmarked)	-5.2
COc1ccccc1CCNC(=O)CSc1ccc(-c2ccccn2)nn1	-0.538
CN1CN=C2SC3(COC(c4ccncc4)OC3)C(=O)N2C1 (centres unmarked)	6.22
CC1(C)Cc2c(sc3ncn4nc(COc5ccc(Cl)cc5)nc4c23)C(C)(C)N1	-0.467
Cc1ccccc1CN(C)C1CCN(C)CC1	3.16
NC(=O)NC(CC(=O)O)c1ccccc1 (centres unmarked)	1.7
Fc1cccc(CN2CCN(c3ccccn3)CC2)c1	-1.92
Brc1ccccc1-c1nc2c3c4c(sc3ncn2n1)CCCC4	6.42
NC(=O)COc1ccc(Br)cc1	-9.75
CC(=O)CCc1c(C)nc2ccc(C)cc2c1Cl	6.06
Cc1csc(NC(=O)CSc2nsc(SCC(=O)Nc3nc(C)cs3)c2C#N)n1	-4.6
C=C(C)c1cccc(C(C)(C)NC(=O)N2CCN(C/C=C/c3ccccc3)CC2)c1	-0.0626
CN1CCC(OC(=O)c2cccc(F)c2)CC1	-8.42
CCn1cc(-c2cc(C(=O)O)c3ccccc3n2)c(C)n1	-1.28

Structure (SMILES)	% Inhibition @ 10 uM [%]
COc1ccc(Br)cc1C1C2=C(O)CCCC2=Nc2nc3ccccc3n21 (centres unmarked)	3.32
CCc1c(C)nn2c1n1nc(C)c(CC)c1n1nc(C)c(CC)c21	-5.46
CCCCNC(=O)Cn1nc(Cc2ccncc2)c2ccccc2c1=O	7.96
CCCn1c(CCNC(=O)c2cc(OC)c(OC)c(OC)c2)nc2ccccc21	2.83
COc1ccc(OC)c(CN2CCN(Cc3cccc(Br)c3)CC2)c1	-2.3
O=C(CSc1nnc2c(n1)[nH]c1ccccc12)Nc1ncc(C(F)(F)F)cc1Cl	0.503
Cc1ccc(S(=O)(=O)NCC2CCC(C(=O)NC3CCC(C)CC3)CC2)cc1 (centres unmarked)	0.718
CN(C)C1(c2nnnn2C(/C=C\c2ccc(Cl)cc2Cl)C(C)(C)C)CCCCC1 (centres unmarked)	-4.16
CSC(SC)=C(C(C)=O)C(=O)c1ccc(C)cc1	2.76
CC(C)CCNC(=O)c1ccc(CS(=O)(=O)c2ccc(Br)cc2)o1	-1.28
CC(NC(=O)CCc1nnc2n(CCc3ccccc3)c(=O)c3ccccc3n12)c1ccccc1 (centres unmarked)	-4.21
CCSc1nnc2n(Cc3ccccc3)c3ccccc3n12	1.23
O=C(c1cc2nc(-c3ccc(F)cc3)cc(C(F)(F)F)n2n1)N1CCOCC1	-0.795
O=C(COc1ccc(Br)cc1)Nc1ccc(N2CCCC2)c(Cl)c1	-6.39
COc1cccc(CNCc2cccn2-c2nnc(N3CCN(C4CCCCC4)CC3)s2)c1	3.28
COC(=O)C1=C(C)N(C)C(=O)NC1c1cccc(F)c1 (centres unmarked)	-19.8
CCCN1CCC(N[C@H]2CCCCNC2=O)CC1	-3.6
COCCO/C(O)=C1/C(C)=NC2=C(C(=O)CCC2)C1c1ccccc1 (centres unmarked)	-5.23
CCOc1ccc(NC=C2C(=O)N(C)C(=O)N(C)C2=O)cc1	-1.98
COc1cccc(CNc2nc3ccccc3n2CCN2CCOCC2)c1O	3.38
O=C(O)CC12CC3CC(C1)CC(n1ncc(N4CCC5(CC4)OCCO5)c(Cl)c1=O)(C3)C2	1.72
Cc1nc2sc(C(=O)c3ccccc3)c(N)c2c(C)c1Cl	1.01
CC(C)Cn1cc(NC(=O)NCCN(Cc2ccccc2)C(C)C)c2ccccc2c1=O	-10.2
COC(=O)C1=CN(Cc2ccc(Cl)cc2)C=C(C(=O)OC)C1c1cccs1	-6.91
Cc1[nH]nc2c1C(c1cc(O)c(Br)c(O)c1)C(C#N)=C(N)O2 (centres unmarked)	-2.54

Source: paper PMC6919601, “Identification of Plasmodium dipeptidyl aminopeptidase allosteric inhibitors by high throughput screening” (PLoS ONE, 2019)
